{"source": "PubChem BioAssay AID1346428", "about": "(National Center for Advancing Translational Sciences (NCATS), 2018)", "note": "About 1,200 (2.5%) of roughly 48,000 compounds were called active. Inconclusive results (about 2%) are left out.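 How the source made its calls: active means activation of at least 60% and not above a set upper limit (about 1 call in 100 departs from these limits); inconclusive means activation of 40% to 60%, or above that upper limit; inactive means activation under 40%.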 This is one part of the list."}
{"target": "Probable G-protein coupled receptor 32 (Homo sapiens) (UniProt O75388)", "sequence (O75388 whole entry, looked up)": "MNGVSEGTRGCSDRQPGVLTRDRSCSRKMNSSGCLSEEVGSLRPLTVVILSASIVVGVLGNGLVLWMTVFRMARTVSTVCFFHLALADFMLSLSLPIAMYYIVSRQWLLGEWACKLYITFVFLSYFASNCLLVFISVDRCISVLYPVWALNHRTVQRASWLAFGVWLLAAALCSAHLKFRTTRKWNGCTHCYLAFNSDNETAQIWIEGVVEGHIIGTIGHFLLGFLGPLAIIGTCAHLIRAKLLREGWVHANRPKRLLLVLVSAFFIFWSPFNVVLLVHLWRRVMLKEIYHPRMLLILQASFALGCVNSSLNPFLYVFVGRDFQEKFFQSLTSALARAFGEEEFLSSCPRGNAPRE", "experiment": "qHTS for Agonists of Human Resolvin D1 Receptor DRV1; further: 0% is about no effect", "conditions": "CHO-K1 GPR32 beta-arrestin PathHunter luminescence, 90 min; at 76.9 µM; hits give high values; zero percent set by DMSO-only wells", "summary_of_the_method": "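Step 1: seed CHO-K1 GPR32 beta-arrestin cells, 2,500/well, overnight at 37 °C. Step 2: add compounds, 90 min at 37 °C. Step 3: detection reagent, 1 h ambient, then luminescence.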"}
{"smiles": "CCOC(=O)c1ccc(NC(=O)Cn2cc(C(=O)c3cccs3)c3ccccc32)cc1", "activation": "inactive: -17.3%"}
{"smiles": "Cc1cccc(OC(=O)c2nc(SCc3ccccc3F)ncc2Cl)c1", "activation": "inactive: -18.5%"}
{"smiles": "Cc1nc2ccn(Cc3cccs3)c(=O)c2cc1C(=O)NCc1ccc(Cl)cc1", "activation": "inactive: -24.5%"}
{"smiles": "Cc1ccc(Nc2nc3c(S(=O)(=O)c4ccccc4)nnn3c3ccc(Cl)cc23)c(C)c1", "activation": "inactive: 9.61%"}
{"smiles": "COc1ccc(CNC(=O)c2cc3c(=O)[nH]c4ccccc4c3n2C)c(OC)c1", "activation": "inactive: 9.58%"}
{"smiles": "Cc1ccc2c(c1)N(C(=O)N1CCC(C(=O)NCc3cccs3)CC1)CC(C)O2", "note": "(centres undefined)", "activation": "inactive: -0.322%"}
{"smiles": "Cc1nn2c(=O)cc(COC(=O)C(c3ccccc3)c3ccccc3)nc2s1", "activation": "inactive: -8.47%"}
{"smiles": "CC(NC(=O)CN1C(=O)COc2ccc(Cl)cc21)c1ccccc1", "note": "(centres undefined)", "activation": "inactive: -1.57%"}
{"smiles": "COc1ccc(CCNC(=O)CCCn2c(=O)c3ccccc3n(CC(=O)Nc3ccc(C)cc3Cl)c2=O)cc1OC", "activation": "inactive: 39.7%"}
{"smiles": "COc1ccc(Cl)cc1NC(=O)NCc1noc2ccccc12", "activation": "inactive: -12.6%"}
{"smiles": "Cc1cccc(N(CC(=O)NCCSc2ccc(Cl)cc2)S(C)(=O)=O)c1C", "activation": "active: 103%"}
{"smiles": "Cc1ccc(-c2c(C(=O)N(C)Cc3ccccc3)oc(=O)c3ccccc23)cc1", "activation": "inactive: -7.12%"}
{"smiles": "Cc1ccc(NC(=O)C2CCN(C(=O)c3cnn(-c4ccccc4)c3-n3cccc3)CC2)cc1C", "activation": "inactive: 0.748%"}
{"smiles": "CC(C)c1ccc(NC(=O)CCNS(=O)(=O)c2ccc3c(c2)oc(=O)n3C)cc1", "activation": "inactive: 4.18%"}
{"smiles": "C=C(C)Cn1c(SCC(=O)Nc2cccc(C)c2)nc2sc3c(c2c1=O)CCCC3", "activation": "inactive: -0.104%"}
{"smiles": "O=C(CCS(=O)(=O)c1nc(-c2ccc3c(c2)OCO3)cc(C(F)(F)F)n1)Nc1ccc(F)cc1F", "activation": "inactive: -35.1%"}
{"smiles": "COC(=O)c1nnn(-c2ccc(Cl)cc2)c1C(=O)OC", "activation": "inactive: -2.94%"}
{"smiles": "Cc1ccc(-n2ncc(C(=O)N3CCN(C(=O)c4ccco4)CC3)c2C2CCN(C(=O)OC(C)(C)C)CC2)cc1", "activation": "inactive: -6.99%"}
{"smiles": "CCS(=O)(=O)c1ncc(Cl)c(C(=O)Nc2c(C(=O)c3ccc(C)cc3)oc3ccccc23)n1", "activation": "inactive: 14.9%"}
{"smiles": "O=C(NCC(c1cccnc1)N1CCc2ccccc2C1)C(=O)Nc1ccc(F)cc1F", "note": "(centres undefined)", "activation": "inactive: -16%"}
{"smiles": "Cc1cccc(-c2nc(C)c(CCNC(=O)c3cccs3)s2)c1", "activation": "inactive: 37.8%"}
{"smiles": "O=C(CN1CCCN(Cc2cccc(F)c2)S1(=O)=O)Nc1ccc2c(c1)OCCO2", "activation": "inactive: 23.1%"}
{"smiles": "COc1cccc(-c2cn3c(n2)sc2cc(C(=O)NCCC4=CCCCC4)ccc23)c1", "activation": "inactive: -16%"}
{"smiles": "O=C(CSc1oc(-c2ccc(F)cc2)nc1S(=O)(=O)c1ccc(Cl)cc1)c1ccccc1", "activation": "inactive: -22%"}
{"smiles": "Cc1cccc(CCNC(=O)c2nn(C)c3c2CSc2ccccc2-3)c1", "activation": "inactive: 8.66%"}
{"smiles": "O=C(c1ccc2c(c1)N(Cc1cccc(Cl)c1)C(=O)c1ccccc1S2(=O)=O)N1CCCCCC1", "activation": "inactive: -26.6%"}
{"smiles": "COc1ccc(-c2nc(CSc3nnc(C)n4c3cc3sccc34)c(C)o2)cc1", "activation": "inactive: 1.06%"}
{"smiles": "COc1ccc(-c2ccc(=O)n(CC(=O)Nc3ccccc3C(F)(F)F)n2)cc1", "activation": "inactive: 27.1%"}
{"smiles": "CCS(=O)(=O)N1CCc2cc(C(=O)Nc3cccc(NC(C)=O)c3)ccc21", "activation": "inactive: 25.2%"}
{"smiles": "Oc1ccccc1-c1nc2ccc(Cl)cn2c1Nc1ccc2c(c1)OCCO2", "activation": "inactive: 20.6%"}
{"smiles": "O=C(Nc1c(C(=O)N2CCN(c3ccccc3F)CC2)oc2ccccc12)c1ccc(Br)o1", "activation": "inactive: -34.2%"}
{"smiles": "S=C(S)N1CCCC1", "activation": "inactive: -38%"}
{"smiles": "Cc1ccc(C2c3[nH]c4ccccc4c3CCN2C(=O)CSc2ccccc2)cc1", "note": "(centres undefined)", "activation": "inactive: -33.3%"}
{"smiles": "CC(Oc1ccc(Br)cc1)C(=O)N(Cc1nc(-c2ccccc2)no1)C(C)C", "note": "(centres undefined)", "activation": "inactive: 5.31%"}
{"smiles": "O=C(NCCCN1CCN(c2ccccc2)CC1)c1ccc2nc(CCc3ccccc3)oc2c1", "activation": "inactive: -11.2%"}
{"smiles": "CCc1nn2c(=O)cc(COC(=O)c3ccccc3NC(=O)c3ccc(C(C)(C)C)cc3)nc2s1", "activation": "inactive: -10.2%"}
{"smiles": "Cc1ccccc1OCC(=O)Nc1nnc(S(=O)(=O)N2CCCCCC2)s1", "activation": "inactive: -0.54%"}
{"smiles": "Cn1c(=O)oc2cc(S(=O)(=O)N3CCCC(C(=O)N4CCN(c5ccc(F)cc5)CC4)C3)ccc21", "note": "(centres undefined)", "activation": "inactive: 11%"}
{"smiles": "CSc1cccc(NC(=O)C2CCCN(S(=O)(=O)c3ccc4c(c3)CCCN4C(C)=O)C2)c1", "note": "(centres undefined)", "activation": "inactive: -11.1%"}
{"smiles": "Cc1ccc(-n2c(-c3cccc(C)c3)nc3c(cnn3-c3ccccc3)c2=O)cc1", "activation": "inactive: -22.8%"}
{"smiles": "CCCCC(CC)CNC(=O)CC(C)OC(=O)CCC(=O)O", "note": "(centres undefined)", "activation": "inactive: -0.962%"}
{"smiles": "CCCN(CCC)CCCNC(=O)c1sc2nc3n(c(=O)c2c1C)CCC3", "activation": "inactive: -2.66%"}
{"smiles": "Oc1cccc(-c2nc(-c3cccs3)c(-c3cccs3)[nH]2)c1", "activation": "inactive: -10.8%"}
{"smiles": "CC(=O)CC(c1ccccc1)c1c(O)c2ccccc2oc1=O", "note": "(centres undefined)", "activation": "inactive: -8.62%"}
{"smiles": "Cc1ccccc1OCCSc1nnc(-c2ccc([N+](=O)[O-])cc2)o1", "activation": "inactive: 5.65%"}
{"smiles": "O=C(NCC(c1ccc2c(c1)OCO2)N1CCOCC1)C(=O)Nc1ccc(Cl)cc1", "note": "(centres undefined)", "activation": "inactive: -2.22%"}
{"smiles": "COc1ccc(CNC(=O)CSCc2ccc(C)cc2)c(OC)c1", "activation": "inactive: -18%"}
{"smiles": "O=C(c1ccc2c(c1)N(Cc1cccc(Cl)c1)C(=O)c1ccccc1S2(=O)=O)N1CCN(Cc2ccccc2)CC1", "activation": "inactive: -26%"}
{"smiles": "CCc1cc2c(cc3c(=O)n(CC(=O)NC(C)C)nc(CC)n32)s1", "activation": "inactive: -14.5%"}
{"smiles": "COc1ccccc1NC(=O)c1cc2c(n(-c3ccc(C)cc3)c1=O)CC(C)(C)CC2=O", "activation": "inactive: -3.04%"}
{"smiles": "CCC1CCCCN1CCCNC(=O)c1sc2nc(C)cc(C)c2c1-n1cccc1", "note": "(centres undefined)", "activation": "inactive: -20.5%"}
{"smiles": "Cc1ccc(NS(=O)(=O)c2ccc(-c3cc(C)no3)cc2)c(C)c1", "activation": "inactive: -5.6%"}
{"smiles": "O=C1NS(=O)(=O)c2ccccc21", "activation": "inactive: -7.02%"}
{"smiles": "COc1ccc(CNC(=O)Cn2c(=O)n3nc(-c4cccc(F)c4)nc3c3ccccc32)cc1OC", "activation": "inactive: 18.8%"}
